In PMC4945878:
Where two headings read alike, the source gives them in different places. Results are given in words; binding and its absence hold for the method and conditions named. For some of these results: In cells and extracts the contact can be indirect. Some results given as binding are weak or reduced against the parent protein; the word gives no strength. For some of these results: Where a sequence is shown, tags or fusion partners need not be part of it. Values belong to the molecule of their own block, whether it stands above or below them.

Sequences of proteins named here, by UniProt entry; tags and fusion partners are left off. A change or cut given only in a name is not applied to a line headed by its entry. A line that says so, or that is headed by a name, gives the form on record, which may keep a tag or linker. Residues count along the entry.
UniProt Q9HAW4: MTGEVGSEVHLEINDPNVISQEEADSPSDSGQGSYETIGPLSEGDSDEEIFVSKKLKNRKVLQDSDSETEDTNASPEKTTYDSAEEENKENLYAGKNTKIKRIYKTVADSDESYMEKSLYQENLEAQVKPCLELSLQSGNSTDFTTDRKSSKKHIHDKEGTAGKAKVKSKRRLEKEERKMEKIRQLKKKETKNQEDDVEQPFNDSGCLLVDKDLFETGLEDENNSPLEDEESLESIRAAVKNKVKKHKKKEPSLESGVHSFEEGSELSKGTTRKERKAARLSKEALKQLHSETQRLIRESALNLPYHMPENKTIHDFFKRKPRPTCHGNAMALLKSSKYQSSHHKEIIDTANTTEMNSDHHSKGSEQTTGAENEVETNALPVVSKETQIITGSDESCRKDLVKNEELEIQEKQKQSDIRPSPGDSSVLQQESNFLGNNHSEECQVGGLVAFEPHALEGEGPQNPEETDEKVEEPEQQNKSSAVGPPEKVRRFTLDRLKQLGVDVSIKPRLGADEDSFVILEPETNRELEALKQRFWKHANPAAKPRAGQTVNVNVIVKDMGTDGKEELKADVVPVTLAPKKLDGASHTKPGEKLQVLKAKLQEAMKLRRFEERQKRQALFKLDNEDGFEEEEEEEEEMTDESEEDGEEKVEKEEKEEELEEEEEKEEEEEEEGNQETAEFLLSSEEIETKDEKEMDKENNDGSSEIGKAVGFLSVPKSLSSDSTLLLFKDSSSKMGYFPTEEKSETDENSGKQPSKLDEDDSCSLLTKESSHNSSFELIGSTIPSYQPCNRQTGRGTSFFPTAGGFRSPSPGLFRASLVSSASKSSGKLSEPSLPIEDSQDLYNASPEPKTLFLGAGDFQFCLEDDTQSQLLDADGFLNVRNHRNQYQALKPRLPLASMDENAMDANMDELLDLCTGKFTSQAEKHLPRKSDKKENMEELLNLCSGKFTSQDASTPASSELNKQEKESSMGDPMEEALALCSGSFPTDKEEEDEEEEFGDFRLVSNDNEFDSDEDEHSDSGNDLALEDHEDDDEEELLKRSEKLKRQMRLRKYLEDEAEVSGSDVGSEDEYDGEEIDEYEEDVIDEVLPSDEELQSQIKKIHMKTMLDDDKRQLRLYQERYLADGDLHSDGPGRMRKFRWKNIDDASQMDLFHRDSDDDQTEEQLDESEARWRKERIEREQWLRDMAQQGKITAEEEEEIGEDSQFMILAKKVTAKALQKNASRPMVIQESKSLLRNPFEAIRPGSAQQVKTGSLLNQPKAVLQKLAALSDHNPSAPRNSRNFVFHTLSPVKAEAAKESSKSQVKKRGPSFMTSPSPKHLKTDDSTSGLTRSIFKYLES
Claspin #26 (aa1-985), 3xFlag: residues 1-985 of Q9HAW4
Claspin #25 (aa1-896), 3xFlag: residues 1-896 of Q9HAW4
Claspin #2 (aa1-350), 3xFlag: residues 1-350 of Q9HAW4
Claspin PIP mutant, full length, 3xFlag (Q9HAW4, form named): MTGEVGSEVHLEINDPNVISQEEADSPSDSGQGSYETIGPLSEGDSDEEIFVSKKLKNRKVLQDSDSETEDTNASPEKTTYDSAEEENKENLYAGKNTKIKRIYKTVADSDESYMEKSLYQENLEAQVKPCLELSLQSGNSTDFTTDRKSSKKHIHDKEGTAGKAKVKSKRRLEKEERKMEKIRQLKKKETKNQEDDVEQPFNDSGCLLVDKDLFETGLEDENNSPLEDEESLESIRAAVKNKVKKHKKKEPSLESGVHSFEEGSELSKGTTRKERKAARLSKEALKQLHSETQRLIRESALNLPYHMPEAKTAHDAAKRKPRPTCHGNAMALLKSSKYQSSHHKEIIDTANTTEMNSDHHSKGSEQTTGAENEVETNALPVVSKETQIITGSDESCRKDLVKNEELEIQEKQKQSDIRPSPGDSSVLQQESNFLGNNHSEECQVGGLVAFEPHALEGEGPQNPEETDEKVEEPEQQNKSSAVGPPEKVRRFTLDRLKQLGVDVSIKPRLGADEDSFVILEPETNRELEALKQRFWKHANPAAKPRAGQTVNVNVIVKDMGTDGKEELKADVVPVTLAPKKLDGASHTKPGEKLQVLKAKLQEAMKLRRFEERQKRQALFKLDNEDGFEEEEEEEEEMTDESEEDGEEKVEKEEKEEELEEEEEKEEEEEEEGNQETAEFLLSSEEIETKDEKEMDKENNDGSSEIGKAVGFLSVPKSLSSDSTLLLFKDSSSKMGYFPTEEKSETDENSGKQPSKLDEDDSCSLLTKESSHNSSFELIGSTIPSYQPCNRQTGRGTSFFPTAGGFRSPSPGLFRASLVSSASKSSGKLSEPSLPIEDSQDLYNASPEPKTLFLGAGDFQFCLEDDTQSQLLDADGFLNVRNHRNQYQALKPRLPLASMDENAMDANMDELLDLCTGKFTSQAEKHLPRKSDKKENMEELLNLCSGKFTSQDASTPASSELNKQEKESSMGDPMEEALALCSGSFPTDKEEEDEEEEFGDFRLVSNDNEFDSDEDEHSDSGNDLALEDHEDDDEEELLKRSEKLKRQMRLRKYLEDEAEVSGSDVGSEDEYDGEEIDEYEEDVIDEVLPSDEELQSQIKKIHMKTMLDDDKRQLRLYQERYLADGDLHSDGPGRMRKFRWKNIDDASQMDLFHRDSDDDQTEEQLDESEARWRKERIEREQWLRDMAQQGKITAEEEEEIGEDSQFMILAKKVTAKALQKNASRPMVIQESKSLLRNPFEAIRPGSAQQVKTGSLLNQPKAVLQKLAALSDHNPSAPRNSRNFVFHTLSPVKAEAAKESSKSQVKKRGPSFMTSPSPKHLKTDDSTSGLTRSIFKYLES
Claspin #24 (aa1-350+aa897-1,339), 3xFlag (Q9HAW4, form named): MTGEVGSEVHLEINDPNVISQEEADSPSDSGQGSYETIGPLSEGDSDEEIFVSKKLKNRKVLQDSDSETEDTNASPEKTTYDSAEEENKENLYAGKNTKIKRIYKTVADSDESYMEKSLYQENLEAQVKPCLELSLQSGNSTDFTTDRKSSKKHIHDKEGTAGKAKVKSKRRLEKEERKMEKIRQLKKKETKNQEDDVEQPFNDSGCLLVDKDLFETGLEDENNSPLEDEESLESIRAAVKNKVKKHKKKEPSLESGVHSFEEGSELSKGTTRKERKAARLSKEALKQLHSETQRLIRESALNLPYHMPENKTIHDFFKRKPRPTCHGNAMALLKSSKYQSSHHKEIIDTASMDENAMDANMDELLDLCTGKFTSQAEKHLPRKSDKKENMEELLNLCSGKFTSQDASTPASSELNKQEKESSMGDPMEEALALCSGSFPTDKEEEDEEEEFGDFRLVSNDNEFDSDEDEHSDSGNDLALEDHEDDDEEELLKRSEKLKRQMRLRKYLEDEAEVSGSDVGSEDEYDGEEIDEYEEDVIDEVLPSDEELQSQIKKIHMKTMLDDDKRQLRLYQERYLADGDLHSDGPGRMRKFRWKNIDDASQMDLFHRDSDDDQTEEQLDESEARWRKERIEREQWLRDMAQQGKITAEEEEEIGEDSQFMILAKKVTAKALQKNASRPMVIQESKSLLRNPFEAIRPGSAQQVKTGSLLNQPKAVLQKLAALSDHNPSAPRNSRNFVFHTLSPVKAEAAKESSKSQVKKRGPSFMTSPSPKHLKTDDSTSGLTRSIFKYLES
Claspin #2 (aa1-350) PIP mutant, 3xFlag (Q9HAW4, form named): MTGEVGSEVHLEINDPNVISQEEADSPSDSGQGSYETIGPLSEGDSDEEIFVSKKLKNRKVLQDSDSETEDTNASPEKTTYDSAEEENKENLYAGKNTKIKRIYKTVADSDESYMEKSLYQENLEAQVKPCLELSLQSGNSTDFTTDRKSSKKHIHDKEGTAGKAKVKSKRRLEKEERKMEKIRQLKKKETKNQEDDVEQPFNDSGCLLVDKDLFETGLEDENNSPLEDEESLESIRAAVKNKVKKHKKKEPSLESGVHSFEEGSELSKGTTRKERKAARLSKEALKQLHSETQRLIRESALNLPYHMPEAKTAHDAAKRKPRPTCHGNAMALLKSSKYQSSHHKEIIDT
UniProt Q13535: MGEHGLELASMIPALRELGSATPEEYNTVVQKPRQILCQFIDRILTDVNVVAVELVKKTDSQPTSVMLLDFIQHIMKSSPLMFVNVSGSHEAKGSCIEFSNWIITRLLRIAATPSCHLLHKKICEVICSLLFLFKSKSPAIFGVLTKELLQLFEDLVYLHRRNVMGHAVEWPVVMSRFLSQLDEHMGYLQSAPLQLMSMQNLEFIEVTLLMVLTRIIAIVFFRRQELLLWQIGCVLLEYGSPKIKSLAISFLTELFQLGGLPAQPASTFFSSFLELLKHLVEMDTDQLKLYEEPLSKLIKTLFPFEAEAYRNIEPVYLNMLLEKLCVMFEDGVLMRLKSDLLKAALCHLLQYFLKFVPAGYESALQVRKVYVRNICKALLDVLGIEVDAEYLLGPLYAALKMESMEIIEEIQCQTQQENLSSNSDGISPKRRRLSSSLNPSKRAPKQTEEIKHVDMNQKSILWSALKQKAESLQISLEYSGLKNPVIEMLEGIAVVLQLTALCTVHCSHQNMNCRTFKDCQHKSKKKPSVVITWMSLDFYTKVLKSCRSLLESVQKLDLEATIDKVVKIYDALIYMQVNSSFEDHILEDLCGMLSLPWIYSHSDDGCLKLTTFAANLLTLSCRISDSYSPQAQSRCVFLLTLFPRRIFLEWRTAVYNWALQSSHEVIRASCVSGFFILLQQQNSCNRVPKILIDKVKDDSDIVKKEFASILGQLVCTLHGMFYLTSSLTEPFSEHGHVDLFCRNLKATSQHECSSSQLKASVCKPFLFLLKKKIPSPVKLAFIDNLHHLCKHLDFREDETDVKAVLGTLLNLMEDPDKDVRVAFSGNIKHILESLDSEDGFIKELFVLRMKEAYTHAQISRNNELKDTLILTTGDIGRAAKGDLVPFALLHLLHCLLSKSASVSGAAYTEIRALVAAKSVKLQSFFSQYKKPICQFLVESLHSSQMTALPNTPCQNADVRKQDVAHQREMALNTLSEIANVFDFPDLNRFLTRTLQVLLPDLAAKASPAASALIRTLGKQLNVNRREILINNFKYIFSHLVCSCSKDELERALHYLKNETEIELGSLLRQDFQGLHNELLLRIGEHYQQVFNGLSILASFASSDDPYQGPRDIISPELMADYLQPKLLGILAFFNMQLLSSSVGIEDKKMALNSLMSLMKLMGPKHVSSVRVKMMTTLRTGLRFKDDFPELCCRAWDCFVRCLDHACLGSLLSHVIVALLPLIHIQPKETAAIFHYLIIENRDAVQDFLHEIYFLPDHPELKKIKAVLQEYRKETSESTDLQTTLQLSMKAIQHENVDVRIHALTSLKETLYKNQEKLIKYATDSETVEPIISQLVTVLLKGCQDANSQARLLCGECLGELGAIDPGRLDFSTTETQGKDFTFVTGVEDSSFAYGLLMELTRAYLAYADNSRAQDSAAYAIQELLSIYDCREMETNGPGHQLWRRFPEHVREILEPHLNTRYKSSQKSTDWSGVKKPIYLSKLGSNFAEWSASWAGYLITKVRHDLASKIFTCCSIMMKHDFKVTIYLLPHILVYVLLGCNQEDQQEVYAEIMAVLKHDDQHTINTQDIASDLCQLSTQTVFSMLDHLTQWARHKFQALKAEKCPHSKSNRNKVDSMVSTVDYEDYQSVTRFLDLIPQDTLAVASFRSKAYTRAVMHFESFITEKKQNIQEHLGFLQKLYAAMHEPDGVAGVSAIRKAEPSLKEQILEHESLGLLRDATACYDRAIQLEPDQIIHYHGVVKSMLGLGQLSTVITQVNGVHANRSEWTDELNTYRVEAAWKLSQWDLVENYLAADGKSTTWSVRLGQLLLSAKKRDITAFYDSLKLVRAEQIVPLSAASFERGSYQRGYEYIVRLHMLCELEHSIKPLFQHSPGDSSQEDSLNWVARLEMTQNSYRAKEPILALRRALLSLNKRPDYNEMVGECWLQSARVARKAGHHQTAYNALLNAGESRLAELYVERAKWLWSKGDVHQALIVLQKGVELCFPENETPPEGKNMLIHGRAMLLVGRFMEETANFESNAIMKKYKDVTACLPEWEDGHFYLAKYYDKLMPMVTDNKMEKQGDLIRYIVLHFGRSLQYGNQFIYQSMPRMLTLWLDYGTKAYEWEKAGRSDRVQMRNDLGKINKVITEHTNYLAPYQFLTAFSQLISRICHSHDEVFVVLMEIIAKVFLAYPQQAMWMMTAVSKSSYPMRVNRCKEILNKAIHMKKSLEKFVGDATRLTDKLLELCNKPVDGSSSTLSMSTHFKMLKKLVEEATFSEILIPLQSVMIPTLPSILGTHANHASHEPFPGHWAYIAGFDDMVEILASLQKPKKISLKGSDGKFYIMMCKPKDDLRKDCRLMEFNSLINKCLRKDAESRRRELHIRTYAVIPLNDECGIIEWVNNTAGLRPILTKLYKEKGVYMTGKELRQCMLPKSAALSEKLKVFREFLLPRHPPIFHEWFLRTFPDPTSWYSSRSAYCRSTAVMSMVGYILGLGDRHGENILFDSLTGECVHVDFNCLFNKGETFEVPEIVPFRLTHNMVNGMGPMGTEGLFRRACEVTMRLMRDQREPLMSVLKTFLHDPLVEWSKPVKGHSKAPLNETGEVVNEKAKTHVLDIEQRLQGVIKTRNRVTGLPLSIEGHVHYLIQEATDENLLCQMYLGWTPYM

Columns and labels:
[1] = biological target: Claspin #25 (aa1-896), 3xFlag (human) (UniProt Q9HAW4); assay: co-IP; Claspin or its derivatives, 3xFlag at the C terminus, transiently expressed in 293T cells; lysate in CSK buffer with 0.1% TritonX-100 and Benzonase; anti-Flag M2 affinity beads 60 min at 4 °C; endogenous partners detected by western blotting; also told for Cdc7-depleted cells (Supplementary Fig. 9)
[2] = biological target: Claspin #26 (aa1-985), 3xFlag (human) (UniProt Q9HAW4); assay: as above
[3] = biological target: Claspin PIP mutant, full length, 3xFlag (human) (UniProt Q9HAW4); assay: as above
[4] = biological target: Claspin #13 (aa897-1,209), 3xFlag (human) (UniProt Q9HAW4); assay: as above
[5] = biological target: Claspin #18 (aa897-1,339), 3xFlag (human) (UniProt Q9HAW4); assay: as above
[6] = biological target: Claspin #24 (aa1-350+aa897-1,339), 3xFlag (human) (UniProt Q9HAW4); assay: as above
[7] = biological target: Claspin #27 (aa897-1,100), 3xFlag (human) (UniProt Q9HAW4); assay: as above
[8] = biological target: Claspin, wild type, full length (6His-Claspin-3Flag) (human) (UniProt Q9HAW4); assay: as above
[9] = biological target: Claspin, wild type, full length (6His-Claspin-3Flag) (human) (UniProt Q9HAW4); assay: pull-down; purified Flag-tagged Claspin (wild type or mutant) incubated with PCNA or Cdc7-ASK in 40 mM HEPES-KOH (pH 7.6), 100 mM K-glutamate, 1 mM MgCl2, 1 mM EGTA, 0.01% TritonX-100, 0.1 mM ATP at 4 °C for 1 h; recovered on anti-Flag beads; western blotting; both purified
[10] = biological target: Claspin #25 (aa1-896), 3xFlag (human) (UniProt Q9HAW4); assay: co-IP; Flag-tagged N-terminal segment #25 coexpressed in 293T cells with HA-tagged C-terminal polypeptides, pulled down with M2 Flag beads, blot with anti-HA; with or without coexpressed HA-Cdc7 (wild type or kinase dead) and myc-ASK; the text of p-0017 says purified proteins were mixed
[11] = biological target: Claspin #2 (aa1-350), 3xFlag (human) (UniProt Q9HAW4); assay: pull-down; purified Flag-tagged Claspin (wild type or mutant) incubated with PCNA or Cdc7-ASK in 40 mM HEPES-KOH (pH 7.6), 100 mM K-glutamate, 1 mM MgCl2, 1 mM EGTA, 0.01% TritonX-100, 0.1 mM ATP at 4 °C for 1 h; recovered on anti-Flag beads; western blotting; both purified
[12] = biological target: Claspin #2 (aa1-350) PIP mutant, 3xFlag (human) (UniProt Q9HAW4); assay: condition: PCNA, 1.2 or 3.0 pmol; Claspin polypeptide 1.2 pmol; pull-down; purified Flag-tagged Claspin (wild type or mutant) incubated with PCNA or Cdc7-ASK in 40 mM HEPES-KOH (pH 7.6), 100 mM K-glutamate, 1 mM MgCl2, 1 mM EGTA, 0.01% TritonX-100, 0.1 mM ATP at 4 °C for 1 h; recovered on anti-Flag beads; western blotting; both purified
[13] = biological target: Claspin #25 (aa1-896), 3xFlag (human) (UniProt Q9HAW4); assay: co-IP; Flag-tagged #25 expressed in 293T cells alone or with HA-tagged C-terminal polypeptides (#13, #27); M2 Flag beads; blot for associated endogenous PCNA
[14] = biological target: Claspin #2 (aa1-350), 3xFlag (human) (UniProt Q9HAW4); assay: co-IP; Claspin or its derivatives, 3xFlag at the C terminus, transiently expressed in 293T cells; lysate in CSK buffer with 0.1% TritonX-100 and Benzonase; anti-Flag M2 affinity beads 60 min at 4 °C; endogenous partners detected by western blotting; also told for Cdc7-depleted cells (Supplementary Fig. 9)
[15] = biological target: Claspin PIP mutant, full length, 3xFlag (human) (UniProt Q9HAW4); assay: as above; remark: listed apart in the source
[16] = biological target: Claspin, wild type, full length (6His-Claspin-3Flag) (human) (UniProt Q9HAW4); assay: as above; remark: listed apart in the source
[17] = biological target: Claspin, wild type, full length (6His-Claspin-3Flag) (human) (UniProt Q9HAW4); assay: co-IP; purified Claspin (wild type or DE/A) with purified Pol ɛ or Cdc45, coimmunoprecipitation in vitro (Supplementary Fig. 10); conditions not shown; both purified

binding [1]: binds weakly
binding [2]: binds weakly
binding [3]: binds
Molecule: ATR (from UniProt Q13535 1-2644) (enzyme)

binding [10]: binds
Molecule: Claspin #27 (aa897-1,100), HA-tagged (from UniProt Q9HAW4 897-1100) (domain or fragment)

binding [11]: binds
binding [9]: binds
binding [12]: no binding
Molecule: PCNA (BioAcademia) (from UniProt P12004 1-261)

binding [13]: binds
binding [14]: binds
binding [8]: binds
Molecule: PCNA (endogenous) (from UniProt P12004 1-261)

The next lines start with the molecule.

Molecule: Cdc7 kinase (from UniProt O00311 1-574) (enzyme)
binding [4]: binds
binding [5]: binds weakly
binding [6]: binds weakly
binding [7]: binds
binding [3]: binds
binding [8]: binds

Molecule: Cdc7-ASK complex, purified (from UniProt O00311 1-574; Q9UBU7 1-674)
binding [9]: binds

Molecule: Claspin #13 (aa897-1,209), HA-tagged (from UniProt Q9HAW4 897-1209) (domain or fragment)
binding [10]: binds

Molecule: Claspin #18 (aa897-1,339), HA-tagged (from UniProt Q9HAW4 897-1339) (domain or fragment)
binding [10]: binds

Molecule: Tim (from UniProt Q9UNS1 1-1208)
binding [14]: binds
binding [3]: binds
binding [8]: binds

B1: Cdc45 (endogenous) (protein, UniProt O75419 1-566)
chain: MFVSDFRKEFYEVVQSQRVLLFVASDVDALCACKILQALFQCDHVQYTLVPVSGWQELETAFLEHKEQFHYFILINCGANVDLLDILQPDEDTIFFVCDTHRPVNVVNVYNDTQIKLLIKQDDDLEVPAYEDIFRDEEEDEEHSGNDSDGSEPSEKRTRLEEEIVEQTMRRRQRREWEARRRDILFDYEQYEYHGTSSAMVMFELAWMLSKDLNDMLWWAIVGLTDQWVQDKITQMKYVTDVGVLQRHVSRHNHRNEDEENTLSVDCTRISFEYDLRLVLYQHWSLHDSLCNTSYTAARFKLWSVHGQKRLQEFLADMGLPLKQVKQKFQAMDISLKENLREMIEESANKFGMKDMRVQTFSIHFGFKHKFLASDVVFATMSLMESPEKDGSGTDHFIQALDSLSRSNLDKLYHGLELAKKQLRATQQTIASCLCTNLVISQGPFLYCSLMEGTPDVMLFSRPASLSLLSKHLLKSFVCSTKNRRCKLLPLVMAAPLSMEHGTVTVVGIPPETDSSDRKNFFGRAFEKAAESTSSRMLHNHFDLSVIELKAEDRSKFLDALISLLS
binding [15]: binds
binding [16]: binds

B2: 6His-Cdc45-HA (protein, UniProt O75419 1-566)
chain: MFVSDFRKEFYEVVQSQRVLLFVASDVDALCACKILQALFQCDHVQYTLVPVSGWQELETAFLEHKEQFHYFILINCGANVDLLDILQPDEDTIFFVCDTHRPVNVVNVYNDTQIKLLIKQDDDLEVPAYEDIFRDEEEDEEHSGNDSDGSEPSEKRTRLEEEIVEQTMRRRQRREWEARRRDILFDYEQYEYHGTSSAMVMFELAWMLSKDLNDMLWWAIVGLTDQWVQDKITQMKYVTDVGVLQRHVSRHNHRNEDEENTLSVDCTRISFEYDLRLVLYQHWSLHDSLCNTSYTAARFKLWSVHGQKRLQEFLADMGLPLKQVKQKFQAMDISLKENLREMIEESANKFGMKDMRVQTFSIHFGFKHKFLASDVVFATMSLMESPEKDGSGTDHFIQALDSLSRSNLDKLYHGLELAKKQLRATQQTIASCLCTNLVISQGPFLYCSLMEGTPDVMLFSRPASLSLLSKHLLKSFVCSTKNRRCKLLPLVMAAPLSMEHGTVTVVGIPPETDSSDRKNFFGRAFEKAAESTSSRMLHNHFDLSVIELKAEDRSKFLDALISLLS
binding [17]: binds
